# Measurements as given in the supplement of paper PMC11417369.
# Some of the results follow.
# Test system: PF3D7_0420300 AP2 domain 1 (GST-tagged)
# Assay: gcPBM binding intensity (ln(normalized median fluorescence intensity)); higher = stronger DNA binding
# Outline: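 Binding intensity values are the highest Masliner-normalised natural-log median intensity among replicate spots of either probe orientation. The binding step lasted 1 h in 1× PBS with 1% milk, 0.2 mg/ml BSA, 0.5% salmon testes DNA and 0.03% Triton X-100, using GST-tagged P. falciparum DNA-binding domains expressed in E. coli on an Agilent 4 × 180k array of primer-extended double-stranded 36-bp intergenic genomic probes plus negative controls. Alexa488 anti-GST antibody and a 488 nm scan detected bound protein.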
row,Sequence,gcPBM binding intensity (ln)
1,GTATAAAAAAATAAAAGTACAAAAAAAAAAGACTGA [XGTACX_site186],9.67
2,AAATAAAAAATATGAACACACATATATAACAAAATA [CACACA_site261],9.86
3,TTTTTTTTTTTTTTTTTTTTTTTTTTTTTTTTTTTT [CACACA_negctrl_site104],9.41
4,AGGATTAAAAAAACATGTACGTATTTAAATATATTT [XGTACX_site8774],9.36
5,AATTGAATAAATTAAACATGCACAGATGTTCTATTT [TGCATGCA_site692],9.08
6,TACTGGTATCGATATAGTACATATAATATTATGTTA [XGTACX_site7490],9.28
7,TTATTTAAAAAATTTTTAAATATACAAAAAAAAAAA [TGCATGCA_negctrl_site464],8.78
8,TTAATAATTAATTATAGTACACATTTATATTAATAA [XGTACX_site190],9.03
9,ATTATAAGAAGGGGGGGTACATAAATATAAATGTAT [XGTACX_site5624],10.3
10,TTTAATTTTCGGTGTGCACACAACTATGAGTTTTTA [CACACA_site3034],9.54
11,TTTAAAAAAAAAAATACACACATAAAAATTTTCAAA [CACACA_site703],9.33
12,ATATAAATAAAATATACACACATAAATATAACGACA [CACACA_site1637],9.98
13,ACGAAGATTTATCTTGCACACGCAAAAAAAAAAAAA [CACACA_site7933],8.94
14,AACATTTCCTTTCTGTGTACATATAAACCCATCTAT [XGTACX_site2071],9.4
15,ATTATATTTTGTAAATGTACATTTATATATTTTGTA [XGTACX_site1226],9.33
16,AAAAAAAAAAAAAAAGCATGCACATATTATTTTTTT [TGCATGCA_site416],9.09
17,ATTCATAAACGTGTGTTAATATGAATTTAAACATAA [XGTACX_negctrl_site213],9.16
18,AATTAGATGGATAAATGTACATAATGTGAATATATT [XGTACX_site86],9.49
19,ATCCACTTTTTGAAGACACACACAAAAAAAAAAAAA [CACACA_site8818],9.36
20,TAAAAATAATTTGCATGTACATAGGTCGATGTATTT [XGTACX_site1357],9.27
21,TGTAAATTATAACGTGCACACATATTTAAAATGAAA [CACACA_site8915],9.33
22,ATATAGAAAATGCATACACACTTTATAAATATATTT [CACACA_site6553],9.41
23,AGATATTTATTGAGTGCATGTTATAAAGGGAAAAAA [TGCATGCA_site88],9.32

row,Sequence,gcPBM binding intensity (ln)
1,TTCAAGCCCTTCTGCTTACACACAGTAATTATTGTG [CACACA_site2952],9.58
2,TATTTTTATTATATGGTGCATATATACATACATATA,9.19
3,AAGTGCATATTATTCACACATAATAATTGTATACCT [CACACA_site5965],9.34
4,ATATGATCATAAAACACACACACAAAAAAAAAAAAA [CACACA_site1806],9.87
5,AAAAAAAAAAAACACACACACAATAGTATATAAATC [CACACA_site956],10.3
6,TTTGTGTTTATAAATTGTACAAAGGTGCAAGAAGAA [XGTACX_site2159],9.29
7,AAAAAAAAAAAAAACACACACACACCCATAAATATA [CACACA_site151],9.88
8,TTAAAATATACATAAACACACACAAAACGTTTAAGA [CACACA_site8267],9.9
9,AATTTAAAATATATAGTACACACGTGAACACAAATA [CACACA_site416],9.48
10,TTTTTTTTTTTTTTTTTTTTCACATGTGTGGAAAAA [GTGCAC_negctrl_site352],8.45
11,AGGATATATAAGTATACACACATATTTATATTTATA [CACACA_site6239],9.36
12,TAACAATAACTTTATACACACATAATATATATATAT [CACACA_site3543],9.59
13,TGTATTTATAATAAAACACACATTTTTAATGTGCTC [CACACA_site4908],9.12
14,CATATACTTCTGTGCACACGAATATTTTTCTTCTTC [CACACA_site1407],9.46
15,TGTTGTCCTAATTCTACACACAATGGTTTATTAAAA [CACACA_site2648],9.62
16,TATACTCATATTTTTACACACATATTTTTTCATATA [CACACA_site5412],9.76
17,TTTTAACGTAAAACATTGATGATATAAAAAATAGGA [GTGCAC_negctrl_site540],9.17
18,ATAAAATATATATATATAAAAATAAATACATAAATA [GTGCAC_negctrl_site157],9.4
19,CAAACAAACAGACACACACACACACCCAAAAATGAT [CACACA_site2430],10.4
20,TCAATATTAAATTATTGTACATGTATGTATATATAT [XGTACX_site3861],9.19
21,TTTTTTTTTTTTTTTTTACACACTTTATTCAAACAA [CACACA_site9360],8.75
22,TTTATATAAATTTTTTGTACACAAGTAAAAACGCGT [XGTACX_site2459],9.02
23,ACACAAATAAATATAACATATATATTATATTATATT [CACACA_negctrl_site710],9.37

row,Sequence,gcPBM binding intensity (ln)
1,CAAATAAAAACAAAACGTACGAATAAATTATTGTTA [XGTACX_site5136],9.49
2,ATATCGTTATTTTTATGTACTAAAATATTTAATTAT [XGTACX_site3516],9.37
3,TATTTGATCTAAAGAGCATGCAAAAACGAACAAGAT [TGCATGCA_site136],9.52
4,CACATATAAATATTAACACACATAATGAATTATATA [CACACA_site2741],9.48
5,ATATATAAAAATTAGGTGCATTAAATTAAAATATAT,9.28
6,AGCATATTATTTTAGGTGCACTTGAAATGTGTTAAC,9.22
7,TTTAAATAAAATATTACACACTTAGAAAGATATATA [CACACA_site7684],9.18
8,TTTTTTTTTTATTGTACATGCAAAAAATTCCACACA [TGCATGCA_site279],8.97
9,TACACCCACCCACATACACACACATACACATATATA [CACACA_site8503],10.2
10,AAAAAAAAAAATATATTAAAATAAAAAATATTAACA [GTGCAC_negctrl_site13],9
11,CCACTTAAAATAAAAAGTACATACAGGTGTTATACA [XGTACX_site8124],9.19
12,TAATGAGGAAATACAGCACACGTTATTACACTTTTC [CACACA_site5399],9.41
13,AATAATGTTATAAATTGTACGTGTATTATTCATTAC [XGTACX_site894],9.38
14,AAATTGGTTCATCAATGTACATGTAAAATAAATCAA [XGTACX_site4795],9.28
15,TATATTTATCCATACAAGAAAAAAAAAAAAAAAATA [CACACA_negctrl_site1328],9.13
16,TTTTTTAATACATATGCATGTTCAAGTACGAAAAAA [TGCATGCA_site641],8.8
17,TACGGGAAAGATAAGAAACACACGGAAAATTAGACG [CACACA_site1661],9.88
18,TACGCAACCAAAAGTTGTACTAATTTTTTTTTTTTG [XGTACX_site7432],9.12
19,ATATATTTTATACATACACACATATAAATATTTTTT [CACACA_site7780],9.44
20,GGAACAAATAATATCACACATATATATATATATATA [CACACA_site5670],9.37
21,TAATAAATATATTGAAGTACTTATAAAAAGCAATAT [XGTACX_site6262],9.03
22,TGTATATAATCGAGTGCACACACAAAAAAAAAGTGA [CACACA_site8417],9.76
23,TTCATGTCCTATTAATGTACTCTACACACATATAAG [XGTACX_site899],9.66

row,Sequence,gcPBM binding intensity (ln)
1,AAAAAAAAAAAAAAAACACACACATATATATATATA [CACACA_site8571],9.51
2,ATTTTATATACACTTTGTACTTATTTTATTCTTCTT [XGTACX_site4200],9.7
3,TTTATTTATTTTTGTTGTACACTTGTATATATTATT [XGTACX_site6486],9.54
4,ATATATATATATAATACACACTAAAGTAACATAATA [CACACA_site5580],9.76
5,TTGTAAGAAAGACACACACACACATATAAATATGTA [CACACA_site6516],9.92
6,TATTTAAAATAATGTGCAAAAGAATAAATAAATAAA [TGCATGCA_negctrl_site194],9.49
7,TTCATTTTCATATATTGTACAAAATTTTATAAGGTT [XGTACX_site4522],9.15
8,TATATAAGAACTTTTACACACATGAAAATGTAGATA [CACACA_site7711],9.4
9,TATATATATATATATACACACATACAGATATATATT [CACACA_site4629],9.51
10,ATATACACATATACATGTACAAATATATATACACAT [XGTACX_site2986],9.43
11,CACTAAAAGAAACACACACACACACCCATATATATA [CACACA_site4151],10.2
12,TTACTATTATTATTTTTTATTTTTATTTTATTTATT [TGCATGCA_negctrl_site269],9.5
13,TTAAAAGTAAGCAAAGTGCATATAACAAAAGTAAAG,9.4
14,AATATAAAACTTTAGAGTACTTATCATTAAAATATA [XGTACX_site4509],8.99
15,TAAAATAAAAAAGTAGTACACACTTCACGATATTTT [CACACA_site3896],9.32
16,ATTAATAATGAAAAAAAACACACGGTACATTCAAAG [CACACA_site1302],9.62
17,AAGAAAATGTATATATGTACATACAATCAAAAGAAG [XGTACX_site3454],9.4
18,GAATATTCAACATAATGTACAAGTATTCATTTCTTT [XGTACX_site7860],9.18
19,CAAAAATAAAAGAAATGTACAAAAAATAATAAAAAA [XGTACX_site6597],9.43
20,AAAATTCATAAATACACACACGCACATATATATATA [CACACA_site4227],9.88
